# The supplement of paper PMC9135407
# Values joined by “and” are separate entries in the source; they are usually repeats but may differ in a detail not shown here. Equal entries are not always repeated. Structures can show the parent of a compound that is named as a salt. In all, about 5,800 compounds went through this assay and about 620 (11%) showed activity.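 How the source made its calls: active = score above a cut-off or among the top three wells of a plate; in these data no inactive exceeds 0.85.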 The list shows a part of the results, in another mix than the full data.
# System: primary human hepatic stellate cells (donor 1)
# Assay: scaled lipid accumulation score (0 = DMSO-like, 1 = nortriptyline-like); higher = stronger HSC inactivation (lipid re-accumulation), active = hit call of the paper
# Details: 48 h
# [1] = library stock concentration: 10 mM
# [2] = library stock concentration: 3.33 mM
# [3] = library stock concentration: 1 mM
# [4] = library stock concentration: 80 uM
# [5] = library stock concentration: 400 uM
# [6] = library stock concentration: 2 mM
smiles,measurement,setting,value
"COC1=CC(=O)C=C(OC)C1=O [2,6-dimethoxyquinone]",scaled lipid accumulation score,[1],inactive: 0.299
CC(=O)O.N=C(N)N/N=C/c1c(Cl)cccc1Cl [Guanabenz acetate],scaled lipid accumulation score,[1],active: 0.999
O=C(O)CCCC[C@@H]1SC[C@@H]2NC(=O)N[C@@H]21 [Biotin (Vitamin B7)],scaled lipid accumulation score,[2],inactive: ≤ 0
same,scaled lipid accumulation score,[1],inactive: ≤ -0.001
O=C(O)CCCC[C@@H]1SC[C@@H]2NC(=O)N[C@@H]21 [Biotin],scaled lipid accumulation score,,inactive: 0.1
same,scaled lipid accumulation score,[1],inactive: 0.074
CN1CCN(c2cc3c(cc2F)c(=O)c(C(=O)O)cn3-c2ccc(F)cc2)CC1,scaled lipid accumulation score,[1],inactive: ≤ 0
CN(C)CCCCCCOc1ccc(-n2ccnc2)cc1,scaled lipid accumulation score,[3],inactive: 0.054 and inactive: 0.003
"C[C@@]1(O)CCOC(=O)C1 [Mevalonic-D, L acid lactone]",scaled lipid accumulation score,,inactive: ≤ 0
COCC(=O)Nc1c(I)c(C(=O)NCC(O)CO)c(I)c(C(=O)N(C)CC(O)CO)c1I (centres undefined) [Iopromide],scaled lipid accumulation score,,inactive: ≤ 0
CCOC(=O)Nc1ccc(NCc2ccc(F)cc2)nc1N [Flupirtine maleate],scaled lipid accumulation score,[2],inactive: ≤ 0
same,scaled lipid accumulation score,[1],inactive: ≤ 0 and inactive: 0.075
CC1COc2c(N3CCN(C)CC3)c(F)cc3c(=O)c(C(=O)O)cn1c23 (centres undefined) [Ofloxacin],scaled lipid accumulation score,,inactive: ≤ 0
same,scaled lipid accumulation score,[1],inactive: ≤ 0 and inactive: ≤ -0.055
CCCCC/C=C\C/C=C\C/C=C\C/C=C\CCCCNC(=O)c1ccc(O)cc1,scaled lipid accumulation score,[3],inactive: ≤ 0
O=C(O)/C=C/c1cnc[nH]1 [4-Imidazoleacrylic acid],scaled lipid accumulation score,[1],inactive: ≤ 0
C[C@H](CCC(=O)O)[C@H]1CC[C@H]2[C@@H]3CC[C@@H]4C[C@H](O)CC[C@]4(C)[C@H]3CC[C@]12C [Lithocholic acid],scaled lipid accumulation score,,inactive: ≤ 0
same,scaled lipid accumulation score,[2],inactive: 0.016
same,scaled lipid accumulation score,[1],inactive: ≤ -0.001 and inactive: ≤ 0
COc1ccc(/C=C\c2cc(OC)c(OC)c(OC)c2)cc1O [Combrestatin A4],scaled lipid accumulation score,[3],active: 0.237
C(=C(/CC1)\CCN1C)(/c2c3cccc2)\c4c(cccc4)C=C3.Cl [Cyproheptadine hydrochloride],scaled lipid accumulation score,[1],active: 0.933
CC(=O)SCC(Cc1ccccc1)C(=O)NCC(=O)OCc1ccccc1 (centres undefined),scaled lipid accumulation score,[1],inactive: ≤ 0
CC(=O)SCC(Cc1ccccc1)C(=O)NCC(=O)OCc1ccccc1 (centres undefined) [Racecadotril],scaled lipid accumulation score,,inactive: ≤ 0
same,scaled lipid accumulation score,[2],inactive: ≤ 0
same,scaled lipid accumulation score,library stock concentration: 5.2 mM,inactive: ≤ 0
same,scaled lipid accumulation score,[1],inactive: 0.045
CCN(CC)Cc1cc(Nc2ccnc3cc(Cl)ccc23)ccc1O.Cl.Cl.O.O [Amodiaquin dihydrochloride dihydrate],scaled lipid accumulation score,,active: 1.22
O=C1OC(OC(=O)c2cccnc2Nc2cccc(C(F)(F)F)c2)c2ccccc21 (centres undefined) [Talniflumate],scaled lipid accumulation score,[1],inactive: ≤ -0.001
COC(=O)C1=C(C)NC(C)=C(C(=O)OC(C)C)C1c1cccc2nonc12 (centres undefined) [Isradipine],scaled lipid accumulation score,,inactive: 0.044
same,scaled lipid accumulation score,[2],inactive: 0.027
same,scaled lipid accumulation score,[1],inactive: 0.08 and inactive: ≤ -0.001
COC(=O)C1=C(C)NC(C)=C(C(=O)OC(C)C)C1c1cccc2nonc12 (centres undefined),scaled lipid accumulation score,library stock concentration: 9.9 mM,inactive: ≤ 0
Cn1c(Nc2ccc(C(F)(F)F)cc2)nc2cc(Oc3ccnc(-c4ncc(C(F)(F)F)[nH]4)c3)ccc21,scaled lipid accumulation score,[4],inactive: ≤ -0.001
same,scaled lipid accumulation score,[5],inactive: ≤ -0.003
same,scaled lipid accumulation score,[6],inactive: 0.037
same,scaled lipid accumulation score,[2],inactive: 0.031
same,scaled lipid accumulation score,[1],inactive: 0.077 and inactive: 0.031
CC1(C)CCC2=C(O1)c1ccccc1C(=O)C2=O [beta-Lapachone],scaled lipid accumulation score,[1],inactive: 0.618
CC1(C)CCC2=C(O1)c1ccccc1C(=O)C2=O [Beta-Lapachone],scaled lipid accumulation score,[2],inactive: 0.47
same,scaled lipid accumulation score,[1],inactive: 0.534
CC1(C)CCC2=C(O1)c1ccccc1C(=O)C2=O [Beta-lapachone],scaled lipid accumulation score,library stock concentration: 20.6 mM,inactive: 0.575
N[C@@H](Cc1cc(-c2ccc(Cl)cc2Cl)cc(CP(=O)(O)O)c1O)C(=O)O,scaled lipid accumulation score,[1],inactive: ≤ -0.006
CC(=O)OCC[N+](C)(C)C [Acetylcholine],scaled lipid accumulation score,[1],inactive: ≤ 0
same,scaled lipid accumulation score,library stock concentration: 11 mM,inactive: 0.016
CC(=O)OCC[N+](C)(C)C [Miochol],scaled lipid accumulation score,[1],inactive: ≤ 0
CC(=O)OCC[N+](C)(C)C [Acetylcholine Chloride],scaled lipid accumulation score,[2],inactive: ≤ 0
same,scaled lipid accumulation score,[1],inactive: ≤ 0
CCC(=O)NC1CCc2cccc(OC)c2C1 (centres undefined),scaled lipid accumulation score,[1],inactive: 0.006
COc1ccccc1OCCNCC(O)COc1cccc2[nH]c3ccccc3c12 (centres undefined) [Carvedilol],scaled lipid accumulation score,[1],active: 0.936
CC(C)(O)C1CCC(C)(C2C(O)CC3(C)C4CC(OC5OC(CO)C(O)C(O)C5O)C5C(C)(C)C(OC6OCC(O)C(O)C6O)CCC56CC46CCC23C)O1 (centres undefined) [Astragaloside A],scaled lipid accumulation score,[2],inactive: 0.019
same,scaled lipid accumulation score,[1],inactive: ≤ 0
OCCN1C[C@H](O)[C@@H](O)[C@H](O)[C@H]1CO [Miglitol],scaled lipid accumulation score,[2],inactive: 0.017
same,scaled lipid accumulation score,library stock concentration: 9.7 mM,inactive: ≤ 0
same,scaled lipid accumulation score,[1],inactive: ≤ 0 and inactive: 0.163
OCCN1C[C@H](O)[C@@H](O)[C@H](O)[C@H]1CO,scaled lipid accumulation score,[1],inactive: ≤ 0
S=C(NCc1ccc2c(c1)OCO2)N1CCN(c2ncnc3c2oc2ccccc23)CC1 [Amuvatinib  (MP-470) (10 mM)],scaled lipid accumulation score,[1],inactive: 0.068
S=C(NCc1ccc2c(c1)OCO2)N1CCN(c2ncnc3c2oc2ccccc23)CC1,scaled lipid accumulation score,[4],inactive: 0.069
same,scaled lipid accumulation score,[5],inactive: ≤ -0.009
same,scaled lipid accumulation score,[6],inactive: 0.025
same,scaled lipid accumulation score,[1],inactive: 0.035
S=C(NCc1ccc2c(c1)OCO2)N1CCN(c2ncnc3c2oc2ccccc23)CC1 [Amuvatinib  (MP-470) (2 mM)],scaled lipid accumulation score,[6],inactive: 0.074
S=C(NCc1ccc2c(c1)OCO2)N1CCN(c2ncnc3c2oc2ccccc23)CC1 [Amuvatinib  (MP-470) (0.4 mM)],scaled lipid accumulation score,[5],inactive: 0.042
S=C(NCc1ccc2c(c1)OCO2)N1CCN(c2ncnc3c2oc2ccccc23)CC1 [Amuvatinib (MP-470)],scaled lipid accumulation score,[2],inactive: 0.006
same,scaled lipid accumulation score,[1],inactive: ≤ 0
OCc1cc(C(O)CNCCCCCCOCCCCc2ccccc2)ccc1O (centres undefined) [Salmeterol],scaled lipid accumulation score,[1],active: 1.08
Cn1cnc([N+](=O)[O-])c1Sc1ncnc2[nH]cnc12 [Azathioprine],scaled lipid accumulation score,,inactive: ≤ 0
same,scaled lipid accumulation score,[2],inactive: ≤ 0
same,scaled lipid accumulation score,library stock concentration: 7.2 mM,inactive: ≤ -0.001
same,scaled lipid accumulation score,[1],inactive: ≤ 0 and inactive: 0.158 and inactive: 0.022
